In article PMC9133232 (Cell chemical biology, 2022):

Key:
[1] = target: HCMV C-A (Human cytomegalovirus, UniProt P16753, A143V/A209V/C138A/C202A/C84A/C87A); assay: Time-course inhibitor labeling by intact protein LC/MS, HCMV C-A; type: binding; conditions: DTT quenched
[2] = target: HCMV C-A S225M (Human cytomegalovirus, UniProt P16753, A143V/A209V/C138A/C202A/C84A/C87A/S225M); assay: Time-course inhibitor labeling by intact protein LC/MS, HCMV C-A S225M dimer; type: binding; conditions: DTT quenched

`O=C(CCl)Cn1nnc(-c2ccccc2)c1COC(=O)NCc1ccccc1` [Compound 43, (1-(3-Chloro-2-oxopropyl)-4-phenyl-1H-1,2,3-triazol-5-yl)methyl benzylcarbamate] was tested, and the “rate of labeling (kobs) HCMV C-A” value [1] was 0.093 min⁻¹ and the “rate of labeling (kobs) HCMV C-A S225M dimer” value [2] was 0.059 min⁻¹.
